# Experimental data from the RNAGym collection of RNA variant scans (doi:10.1073/pnas.2313332121).
# Variants at the background level are over-represented here.
# B1: TPR 5TU (parent)
# chain: GGAUCUUCUCGAUCUAACAAAAAAGACAAAUCUGCCACAAAGCUUGAGAGCAUCUUCGGAUGCAGAGGCGGCAGCCUUCGGUGGCGCGAUAGCGCCAACGUUCUCAACUAUGACACGCAAAACGCGUGCUCCGUUGAAUGGAGUUUAUCAUG
# Variants of: B1
# Assay: polymerase ribozyme fitness, log enrichment relative to wild type (log ratio); higher = more active; in vitro selection for triplet polymerase activity
# Outline: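 A heterodimeric triplet polymerase ribozyme had each of its subunits mutagenized by PCR into a library, which was transcribed. One round of in vitro selection, done in triplicate, annealed each library with a biotinylated primer, its partner subunit and triplets, then incubated it frozen at −7 °C before gel excision of extended constructs, streptavidin-bead capture and RT-PCR. Fitness is the logarithm of genotype enrichment relative to wild-type enrichment, based on Illumina sequencing of inputs and outputs and inverse-variance-weighted replicate averages. A base-2 logarithm is used, and genotypes were kept only with ≥10 input reads and ≥1 read per output.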
row,Variant,polymerase ribozyme fitness (log ratio)
1,GGAUCUUCUCGAUCUAACAAAAAAGACAAAUGUGCCAGAAAGCUUGAGAGCAUCUUCGGAUGCAGAGGCGGCAGCCUUCGGUGGCGCGAUAGGGCCAACGUUCUCAACUAUGACACGCAAAACGCGUGCUCCUUUGAAUGGAGUUUAUCAUG [C32G C38G C93G G133U],-3.72
2,GGAUCUUCUCGAUCUAACAAAAAAGACAAAUGUGCCACAAAGUUUGAGAGCAUUUUCGGAUGCAGAGGCGGCGGCCGUCGGUGGCGCGAUAGCGCCAACGUUCUCAACUAUGACACGCAAAACGCGUGCUCCGUUGAAUGGAGUUUAUCAUG [C32G C43U C54U A73G U77G],≤ -4.2
3,GGAUCUUCUCGAUCUAACAAAAAAGACAAAUGUGCCACAAAGCUUGAGAGUAUCUUCGGAUGAAGAGGCGGCAGCCUUCGGUGGCGCGAUAGCGCCAACGUUAUCAACUAUGACACGCAAAACGCGUGCUCCGUUGAAUGGAGUUUAUCAUG [C32G C51U C63A C103A],≤ -4.2
4,GGAUCUUCUCGAUCUAACAAAAAAGACAAAUGUGCCACAAAGCUUGAGAGUAUCUUCGGAUGCAGAGGCGGCAGCCUUCGGUGGCGCGAUAGCUCCAAAGUUCUCAACUAUGACACGCCAAACGCUUGCUCCGUUGAAUGGAGUUUGUCAUG [C32G C51U G94U C99A A119C G126U A147G],≤ -4.2
5,GGAUCUUCUCGAUCUAACAAAAAAGACAAAUGUGCCACAAAGCUUGAGAGCAUAUUAGGAUGCAGAGGCGGCAGCCUUCGGUGGCGUGAUAGCGCCAACGUUCUCAACUAUGACACGCAAAACGCGUGCUCCGUUGAAUGUAGUUUAUCAUG [C32G C54A C57A C87U G141U],≤ -4.2
6,GGAUCUUCUCGAUCUAACAAAAAAGACAAAUGUGCCACAAAGCUUGAGAGCAUAUUCGGAUGCAGAGGCGGCAGGCUUCGGUGGCGCGAUAGCGCCAACGUUCUCAACUAUGACACGCAAAACGCGUGUUCCGUUGAAUGGAGUUUAUCAUG [C32G C54A C75G C129U],≤ -4.2
7,GGAUCUUCUCGAUCUAACAAAAAAGACAAAUGUGCCACAAAGCUUGAGAGCAUGUUCGGAUGCAGAGGCGGCAGCCUUCGGUGGCGCGAUAGCGACAACGUUCUAAACUAUGAUACGCAAAACGCGUGCUCCGUUGAAUGGAGUUUAUCAUG [C32G C54G C95A C105A C114U],≤ -4.2
8,GGAUCUUCUCGAUCUAACAAAAAAGACAAAUGUGCCACAAAGCUUGAGAGCAUUUUCGGAUGCAGAGGCGGCAGCCUUCCGUGGCGCGAUAGCGCCAACGUUCUCAACGAUGACACGCAAAACGCGUGCUCCGUUGAAUGGAGUUUAUCAUG [C32G C54U G80C U109G],≤ -4.2
9,GGAUCUUCUCGAUCUAACAAAAAAGACAAAUGUGCCACAAAGCUUGAGAGCAUUUUCGGAUGCAGAGGCGGCAGCCUUCGGUGGCGCGAUAGCACCAACGUUCUCAACUAUGACACGCAAAACGCGUGCUCCGUUGAAUGGAGUUUAUCAUG [C32G C54U G94A],≤ -4.2
10,GGAUCUUCUCGAUCUAACAAAAAAGACAAAUGUGCCACAAAGCUUGAGAGCAUCUUGGGAUGCAGAGGCGGCUGCCUUCGGUGGAGCGAUAGCGCCAACGUUCUCAACUAUGACACGCAAAACGCGUGCUCCGUUGAAUGGAGUGUAUCAUG [C32G C57G A73U C85A U145G],≤ -4.2
11,GGAUCUUCUCGAUCUAACAAAAAAGACAAAUGUGCCACAAAGCUUGAGAGCAUCUUUGGAUGCAGAGGCGGCAGCCUUCCGUGGCCCGAUAGCGCCAACGUUCUCAACUAUGACACGCAAAACGCGUGCUCCGUUGAAUGGAGUUUAUCAUU [C32G C57U G80C G86C G152U],≤ -4.2
12,GGAUCUUCUCGAUCUAACAAAAAAGACAAAUGUGCCACAAAGCUUGAGAGCAUCUUCGGAUGCAGAGGCGGCAGCGUUCGAUGGCGCGAUAGCGCCAACGUUCUCAACUAUGACACGCAAAACGCGUGCUCCGUUGAAUGGAGUUUAUCAUG [C32G C76G G81A],≤ -4.2
13,GGAUCUUCUCGAUCUAACAAAAAAGACAAAUGUGCCACAAAGCUUGAGAGCAUCUUCGGAUGCAGAGGCGGCAGCCUUCGGUGGAGCGAUAGCGCCAACGUUCUCAACUAUGACACGCAAAACGCGUGCUCCGUUGAAUGGAGUUUAUCAUG [C32G C85A],≤ -4.2
14,GGAUCUUCUCGAUCUAACAAAAAAGACAAAUGUGCCACAAAGCUUGAGAGCAUCUUCGGAUGCAGAGGCGGCAGCCUUCGGUGGUCCGAUAGAGCCAACGUUCUCAACUAUGACAUGCACAACGCGAGCUCCGUUGAAUGGAGAUUAUUAAG [C32G C85U G86C C93A C116U A120C U127A U144A C149U U151A],≤ -4.2
15,GGAUCUUCUCGAUCUAACAAAAAAGACAAAUGUGCCACAAAGCUUGAGAGCAUCUUCGGAUGCAGAGGCGGCAGCCUUCGGUGGCGAGAUAGCGCCAACGUUCUCAGCUAUGACACGCAAAACGCGUGCUCCGUUGAAUGGAGUUUAUCAUG [C32G C87A A107G],≤ -4.2
16,GGAUCUUCUCGAUCUAACAAAAAAGACAAAUGUGCCACAAAGCUUGAGAGCAUCUUCGGAUGCAGAGGCGGCAGCCUUCGGUGGCGGGAUAGUGCCAAGGUUCACAACUAUGACACGCAAAAUGCGUGCUCCGUUGAAUGGAGUUUAUCAUG [C32G C87G C93U C99G U104A C123U],≤ -4.2
17,GGAUCUUCUCGAUCUAACAAAAAAGACAAAUGUGCCACAAAGCUUGAGAGCAUCUUCGGAUGCAGAGGCGGCAGCCUUCGGUGGCGGGAUAGCGCCAACGUUCUCAACUAUGACACGGAAAACGCGUGCUCCGUUGAAUGGAGUUUAUCAUG [C32G C87G C118G],≤ -4.2
18,GGAUCUUCUCGAUCUAACAAAAAAGACAAAUGUGCCACAAAGCUUGAGAGCAUCUUCGGAUGCAGAGGCGGCAGCCUUCGGUGGCGUGAUAGCGCCAACGUUCUCAACUAUGACACGCAAAACGCGUGCUCCGUUGAAUGGAGUUUAUCAUG [C32G C87U],-3.63
19,GGAUCUUCUCGAUCUAACAAAAAAGACAAAUGUGCCACAAAGCUUGAGAGCAUCUUCGGAUGCAGAGGCGGCAGCCUUCGGUGGCGUGAUAGCGCCAUCGUUCUCAACUAUGACACGCAAAACGCGUGCUCCGUUGAAUGGAGUUUAUGAUG [C32G C87U A98U C149G],≤ -4.2
